# Measured values: paper PMC4336329 (PLoS ONE, 2015)
# In all, about 310,000 compounds went through this assay and about 14,000 (4.5%) showed an effect of 50% or more. Effects have a minus sign here. The list shows a part of the results.
# Target: human ether-à-go-go-related gene (hERG) potassium channel (human, UniProt Q12809)
# Assay: primary screen, population patch clamp on CHO cells stably expressing hERG
# 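Also: peak tail current of the secondary pulse compared with the same well before compound.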
# Chain of human ether-à-go-go-related gene (hERG) potassium channel (Q12809 whole entry, looked up): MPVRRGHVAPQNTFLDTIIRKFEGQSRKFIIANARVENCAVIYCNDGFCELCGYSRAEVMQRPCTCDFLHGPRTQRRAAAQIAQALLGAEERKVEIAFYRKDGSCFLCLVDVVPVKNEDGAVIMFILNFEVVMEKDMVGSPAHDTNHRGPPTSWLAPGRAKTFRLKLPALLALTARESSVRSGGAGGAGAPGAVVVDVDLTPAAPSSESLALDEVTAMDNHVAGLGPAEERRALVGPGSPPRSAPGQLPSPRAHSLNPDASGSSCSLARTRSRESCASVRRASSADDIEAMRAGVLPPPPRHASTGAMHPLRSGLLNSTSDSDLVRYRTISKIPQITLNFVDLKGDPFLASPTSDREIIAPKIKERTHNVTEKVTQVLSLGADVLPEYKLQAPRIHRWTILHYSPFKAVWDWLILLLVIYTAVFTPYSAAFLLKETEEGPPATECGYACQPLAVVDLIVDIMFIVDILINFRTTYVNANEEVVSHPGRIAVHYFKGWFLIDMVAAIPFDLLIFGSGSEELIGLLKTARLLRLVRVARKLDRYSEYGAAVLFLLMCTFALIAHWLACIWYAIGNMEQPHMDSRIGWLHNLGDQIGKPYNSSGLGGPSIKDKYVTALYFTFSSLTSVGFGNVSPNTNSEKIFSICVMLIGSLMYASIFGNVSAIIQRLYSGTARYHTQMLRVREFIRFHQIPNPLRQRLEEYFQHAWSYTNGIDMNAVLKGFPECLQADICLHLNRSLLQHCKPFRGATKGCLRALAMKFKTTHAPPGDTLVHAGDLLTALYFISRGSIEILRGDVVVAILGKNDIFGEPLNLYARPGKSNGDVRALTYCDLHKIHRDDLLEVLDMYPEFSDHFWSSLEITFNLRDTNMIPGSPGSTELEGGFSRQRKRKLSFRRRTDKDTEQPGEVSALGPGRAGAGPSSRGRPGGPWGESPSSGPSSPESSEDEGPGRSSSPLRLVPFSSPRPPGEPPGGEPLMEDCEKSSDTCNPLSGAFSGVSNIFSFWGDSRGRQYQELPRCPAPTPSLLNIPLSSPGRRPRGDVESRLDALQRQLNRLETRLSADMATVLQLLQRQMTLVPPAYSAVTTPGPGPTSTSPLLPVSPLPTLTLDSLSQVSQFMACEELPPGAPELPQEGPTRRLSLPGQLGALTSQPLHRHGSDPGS
row,Compound,"hERG current change (%, negative = inhibition) at 10uM"
1,CCC(=O)c1ccc2ncccc2c1,12.2%
2,CC(C)(C)c1ccccc1NC(=O)c1cccnc1,4.56%
3,O=C(Nc1ccc(Oc2cccc(C(F)(F)F)c2)nc1)c1ccccc1,13.6%
4,Cc1ccc(NC(=O)CN(C)C(=O)c2cc(-c3ccco3)nc3ccccc23)cc1,-21.8%
5,CC1CCN(c2nc3nonc3nc2Nc2ccc(F)cc2)CC1,-35%
6,COc1ccc(CC(=O)NC(C)CCc2ccccc2)cc1 (stereo not drawn),5.43%
7,CC1CCCC(NC(=O)c2ccc3c(c2)NC(=O)CS3)C1C (stereo not drawn),7.04%
8,O=S(=O)(NCc1ccccc1)c1ccc(S(=O)(=O)N2CCCCC2)cc1,-3.11%
9,O=C(O)/C=C\C(=O)N1CCc2ccccc21,27.9%
10,O=C(/C=C/c1cc(Br)ccc1F)Nc1cccnc1,14.6%
11,CC(=O)c1c(N)n(C)c(=O)n(C)c1=O,-4.24%
12,Cc1cccc(OP(=O)(Nc2ccc(F)cc2)Oc2cccc(C)c2)c1,4.93%
13,CCc1cccc(CC)c1NC(=S)Nc1ccc2cn[nH]c2c1,-21.2%
14,CCOC(=O)Nc1ccc2c(c1)N(C(=O)N(C)C)c1ccccc1CC2,-6.99%
15,CCOc1ccccc1N1CCN(C(=O)c2c(Cl)cnn2C)CC1,5.83%
16,COc1ccc(-n2cc(-c3ccccc3)[n+]3c2CCCCC3)cc1.[Br-],-19.3%
17,Cc1ccc2nc(S(=O)(=O)O)[nH]c2c1,-9.19%
18,COc1ccccc1NC(=O)c1cccnc1,5.89%
19,NC(=O)NC(=O)COC(=O)c1ccc2c(c1)C(=O)N(Cc1ccccc1)C2=O,6.55%

row,Compound,"hERG current change (%, negative = inhibition) at 10uM"
1,O=C(Nc1ccccc1)c1ccc(F)c(S(=O)(=O)N2CCOCC2)c1,0.584%
2,O=C(O)c1ccc(N=c2oc3cc(O)ccc3cc2C(=O)NCc2ccccc2)cc1,4.83%
3,N#Cc1ccccc1OCCn1cncn1,20.2%
4,Cc1c(C)c2ccc(OCC(=O)Nc3ccc(S(N)(=O)=O)cc3)c(C)c2oc1=O,13.8%
5,O=C(CN1CCOCC1)Nc1scc(-c2ccccc2)c1C(=O)N1CCOCC1,-34.9%
6,CN(C)c1ccc(C2CC(=O)OC3=C2C(=O)CC(C)(C)C3)cc1 (stereo not drawn),9.71%
7,CN1CCN(/N=C/c2nc(-c3cccc([N+](=O)[O-])c3)n3ccccc23)CC1,-29.4%
8,N#Cc1c(-c2ccco2)nc(SCc2ccc(F)cc2)[nH]c1=O,-5.28%
9,COc1cc(OC)cc(C(=O)N2CCN(c3ccccc3F)CC2)c1,-11.6%
10,O=C(Cn1ccc(C(F)(F)F)n1)NNC(=O)c1cccnc1,-0.995%
11,CC(C)(C)C(=O)NC(=S)NCCc1ccccc1,-3.23%
12,COc1ccccc1CCCNC(=O)C1CCC(=O)N(CCN2CCOCC2)C1 (stereo not drawn),0.311%
13,COC(=O)c1cc(CNC(=O)c2cccc(Cl)c2Cl)ccc1OC,-37.6%
14,O=c1c2ccccc2nc(/C=C/c2cccnc2)n1CCc1ccccc1,-39.2%
15,O=C(CSc1nnc(-c2ccncc2)n1CC1CCCO1)Nc1ccccc1Cl (stereo not drawn),-9.08%
16,Cc1ccc(S(=O)(=O)CCSc2cccc(C(=O)O)c2)cc1,12.5%
17,O=C(c1cccc(S(=O)(=O)N2CCOCC2)c1)N1CCN(c2ccccc2)CC1,-15.7%
18,CCSC(=O)N(CC)CC(=O)Nc1c(CC)cccc1CC,6.48%
19,CC1(C)C2CCC1(CS(=O)(=O)N1CCN(c3ccccc3F)CC1)C(=O)C2 (stereo not drawn),11.1%

row,Compound,"hERG current change (%, negative = inhibition) at 10uM"
1,COc1ccc(CNC(=O)C(=O)NCC2CCCN2S(=O)(=O)c2ccccc2)cc1 (stereo not drawn),-49.5%
2,ClC(/C=N/n1cnnc1)=C/c1ccccc1,2.33%
3,CN(C)CCNC(=O)C(=O)NCC1CCCN1S(=O)(=O)c1cccs1 (stereo not drawn),16.3%
4,CC(NC(=S)NC1CCCCC1)C(c1cccs1)N1CCOCC1 (stereo not drawn),-0.732%
5,COCCCn1c(C(=O)N2CCOCC2)cc2c(=O)n3ccccc3nc21,2.75%
6,Cc1[nH]c2ccccc2c1CCNC(=O)c1ccc2c(c1[N+](=O)[O-])C(=O)c1ccccc1C2=O,14.2%
7,CCC(C)[C@H](N)c1cn([C@@H](CCCCN)C(=O)N2CCNCC2)nn1.Cl (stereo partly drawn),18.8%
8,CCOc1ccc(S(=O)(=O)Nc2ccc(S(=O)(=O)Nc3cc(OC)ccc3OC)cc2)cc1,-5.67%
9,CCOc1cc(-c2noc(CCC(=O)N3CCOCC3)n2)ccc1OC,9.19%
10,O=C(OCC(=O)c1cccs1)c1ccc([N+](=O)[O-])o1,9.41%
11,O=C(Nc1ccccc1C(=O)N1CCCCCC1)c1cccc([N+](=O)[O-])c1,-12.2%
12,Cc1cc(NC(=O)c2cc(C)on2)n(-c2ccccc2)n1,2.46%
13,COc1cccc(-c2nnc(Nc3nc4c(F)cccc4s3)o2)c1,10.4%
14,Cc1c(Br)c([N+](=O)[O-])nn1CCCC(=O)Nc1sc2c(c1C#N)CCC2,-40.4%
15,O=C(O)c1ccc(C=C(c2nc3ccccc3s2)c2nc3ccccc3s2)cc1,20%
16,O=c1c2ccccc2nc(Cc2ccccc2)n1-c1ccccc1O,2.31%
17,Cc1nc(-c2ccc(Cl)cc2)sc1C1(C)CC(c2cccnc2)=NO1 (stereo not drawn),-23.4%
18,COc1ccc(N2Cc3ccccc3/C2=N\C(=O)Nc2ccccc2)cc1,-9.25%
19,Cc1ccc(C(=O)NCc2ccco2)cc1S(=O)(=O)N1CCCC1,-31.1%
